Screen size: about 410,000 compounds; about 1,200 (0.29%) were called active. Inconclusive results, whose numbers are uncertain, are shown with a selection of clear calls. Calls come from the whole dose curve; as a rule, active = well fitted activation curve with a large enough effect; inconclusive = small, poorly fitted or top-dose-only effect; inactive = flat fitted curve, though single readings scatter. Potencies of inconclusive entries are doubtful fits and often do not repeat.
Test: qHTS of Nrf2 Activators; note: nearly all actives have a fitted effect of over 65% in size; for activation: % of control where 0% means no effect
Settings: AREc32 ARE-luciferase reporter (MCF7-derived line), luminescence, 24 h; activation: at 46.1 µM (top of the series)
Outline: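 ARE activation measured as luciferase luminescence (Steady-Glo, 30 min RT) in AREc32_Fluc cells after 24 hr compound exposure at 37 deg C, 5% CO2; cells seeded overnight at 1000/well in OPTI-MEM, 5% FBS.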
Potency is the fitted concentration of half-maximal effect; tags give direction and shape of the fitted curve.

Compound	Potency	activation
C=CCOc1ccc(Oc2cc(C)nc(SC)n2)nn1	inconclusive: 15.8 µM [activator, single point]	
O=C(CCS(=O)(=O)c1ccccc1)Nc1nc(-c2ccc(F)cc2)cs1	inconclusive: 10 µM [activator, partial curve]	
CC(C)(C)NCC(=Cc1ccccc1)C(=O)c1ccccc1	inconclusive: 1 µM [activator, full curve, poor fit]	
Cc1c(CCC(=O)O)c(=O)oc2cc(OCc3ccccc3Br)ccc12		inactive: -1.81%
O=C(O)CCc1ccc(-c2ccc(Cl)cc2)o1	inconclusive: 31.6 µM [activator, single point]	
CC(=O)c1sc(NC(=O)c2ccc(Br)o2)nc1C	inconclusive: 11.2 µM [activator, partial curve, poor fit]	
O=C(NC(=S)Nc1cc(Cl)ccc1O)c1cccc(Br)c1	inconclusive: 2.51 µM [activator, partial curve, poor fit]	
COc1ccc(Nc2nc(Nc3ccc(OC)cc3OC)nc(N3CCOCC3)n2)c(OC)c1	inconclusive: 6.31 µM [activator, partial curve, poor fit]	
Nc1nncn1C(=O)c1ccccc1Cl		inactive: 0.173%
Cc1cccc(C(=O)NNC(=O)c2cccc(C)c2)c1		inactive: 2.26%
Cc1ccccc1CS(=O)(=O)c1cnc2ccccc2n1	active: 8.91 µM	
Cc1sc(NC(=O)c2ccc(F)cc2)c(CN2CCCCCC2)c1C	active: 12.6 µM	
O=C(N/N=C(\c1ccccc1)c1ccccn1)c1ccccc1Cl	inconclusive: 35.5 µM [activator, single point]	
Cc1ccc(NC(CC(=O)c2ccccc2)C(=O)O)cc1Cl (stereo unspecified)	active: 17.8 µM	
c1ccc(-c2ccnc3nc(-n4cccc4)nn23)cc1	active: 12.6 µM	
O=C(Nc1cccc(C(F)(F)F)c1)C1CCN(S(=O)(=O)c2ccc(N3CCCC3=O)cc2)CC1		inactive: -0.294%
CS(=O)(=O)c1ccc2nnn(OCC(=O)Nc3ccc(Br)cc3Br)c2c1	inconclusive: 22.4 µM [activator, single point]	
CC(=O)c1cnc(-c2cccc(Cl)c2)s1	inconclusive: 17.8 µM [activator, partial curve, poor fit]	
Nc1ccc(C(=O)Nc2ccccc2N)cc1	inconclusive: 11.2 µM [activator, partial curve, poor fit]	
COc1ccc(/C=C/C(=O)c2ccncc2)c2ccccc12	inconclusive: 20 µM [activator, single point]	
COc1cc2c(cc1NC(=O)C(C)OC(=O)C1CC(=O)N(Cc3ccco3)C1)oc1ccccc12 (stereo unspecified)	inconclusive: 17.8 µM [activator, partial curve, poor fit]	
NC(=S)NC(=O)/C=C/c1ccccc1	inconclusive: 22.4 µM [activator, single point]	
Cc1cccc(C)c1Nc1c(-c2ccsc2)nc2cccc(C)n12	inconclusive: 11.2 µM [activator, single point]	
Cc1no[n+]([O-])c1COc1ccc(/C=N/n2nnnc2N)cc1	inconclusive: 22.4 µM [activator, single point]	

Compound	Potency	activation
CCCCNC(=O)/C=C1\Sc2ccccc2NC1=O	inconclusive: 15.8 µM [activator, single point]	
COc1cccc(/C=C/C(=O)c2ccc[nH]2)c1	active: 15.8 µM	
COC(=O)c1ccc(NC(=O)CN(C2CCCCC2)S(C)(=O)=O)cc1		inactive: -0.494%
O=C(c1ccc(-c2ccc([N+](=O)[O-])cc2)o1)N1CCCCCCC1	inconclusive: 17.8 µM [activator, single point]	
CCn1c(CNC(=O)c2ccc(OC)cc2)nnc1SCC(=O)Nc1ccc(C)cc1		inactive: -0.804%
COc1ccccc1NC(=O)COC(=O)/C=C/c1ccccc1[N+](=O)[O-]	inconclusive: 14.1 µM [activator, partial curve, poor fit]	
O=C(NCc1cccnc1)/C(=C/c1ccc(-c2cccc(Cl)c2)o1)S(=O)(=O)c1ccccc1	inconclusive: 31.6 µM [activator, single point]	
COc1ccccc1C=Cc1ccnc2ccccc12	inconclusive: 3.16 µM [activator, full curve]	
COc1ccc2c(c1)Cc1c-2cc(Br)c(N)c1Br	inconclusive: 3.16 µM [activator, partial curve, poor fit]	
C(=C\c1ccccc1)/C=N/Nc1ccc2nncn2n1	inconclusive: 12.6 µM [activator, single point]	
O=C(c1cc(S(=O)(=O)N2CCN(c3ccccc3)CC2)ccc1Cl)N1CCCC(C(F)(F)F)C1 (stereo unspecified)		inactive: -0.165%
COc1cc(/C=C/c2ccc3cccc(O)c3n2)cc(Cl)c1OC	inconclusive: 17.8 µM [activator, single point]	
Cc1cc(S(=O)(=O)N2CCC(N3CCCCC3)CC2)ccc1-n1cnnn1		inactive: 0.31%
O=C1NC[C@H](CCCCN2C[C@H](Cc3ccc(O)cc3)N(CC3CCCCC3)C(=O)C2=O)N(CCC2CCCCC2)C1=O		inactive: -0.451%
CC(CCc1ccccc1)NC(=O)COC(=O)c1ccc(S(C)(=O)=O)c([N+](=O)[O-])c1 (stereo unspecified)		inactive: -2.6%
Cc1noc(/C=C/c2nn(C)cc2Cl)c1[N+](=O)[O-]	inconclusive: 17.8 µM [activator, partial curve, poor fit]	
CCn1c(O)c(N=NC(=O)CNC(=O)/C=C/c2ccco2)c2ccccc21	inconclusive: 15.8 µM [activator, single point]	
COC(=O)c1ccc(Cl)cc1NC(=O)/C=C/c1ccc(C)o1	inconclusive: 2.24 µM [activator, full curve, poor fit]	
COc1ccc(-c2nc3ncccn3c2Br)cc1	inconclusive: 11.2 µM [activator, partial curve, poor fit]	
Cc1ccc(S(=O)(=O)CC(=O)Nc2sc3c(c2C(N)=O)CCCC3)cc1		inactive: -0.0126%
O=C(CC(c1ccco1)S(=O)(=O)c1ccccc1)c1ccccc1 (stereo unspecified)	inconclusive: 17.8 µM [activator, partial curve, poor fit]	
O=C(CC(SCCO)c1ccc(F)cc1)c1ccco1 (stereo unspecified)	inconclusive: 25.1 µM [activator, single point]	
CCOC(=O)c1csc(-c2sccc2Br)n1	active: 14.1 µM	
O=C(c1ccccc1)C(CN1CCCCC1)c1ccccc1 (stereo unspecified)	inconclusive: 3.55 µM [activator, single point]	

Compound	Potency	activation
CCOC(=O)c1sc(N(Cc2ccccc2)C(=O)COC(=O)c2cnccn2)nc1C		inactive: 4.01%
COc1cc(/C=N/NC(=O)CNC(=O)c2cccs2)ccc1O	inconclusive: 15.8 µM [activator, single point]	
CCOC(=O)Cc1csc(NC(=O)Nc2cccc(OC)c2)n1		inactive: 4.75%
CCOc1cc(C=O)cc(N=Nc2cccc([N+](=O)[O-])c2)c1O	active: 10 µM	
CC(OC(=O)/C=C/c1ccc2ccccc2n1)C(=O)Nc1ccc(S(N)(=O)=O)cc1 (stereo unspecified)	inconclusive: 5.01 µM [activator, full curve]	
COC(=O)CSc1nc(-c2ccccc2)cc(-c2ccco2)c1C#N	inconclusive: 2.51 µM [activator, full curve]	
CC1C(C)N(C(=O)CCl)c2ccccc2N1C(=O)CCl (stereo unspecified)	inconclusive: 11.2 µM [activator, partial curve, poor fit]	
COC/C=C/C1=CC2=CC(=O)C(C)(OC(=O)c3cnc4ccccc4n3)C(=O)C2=CN1c1ccccc1 (stereo unspecified)	inconclusive: 22.4 µM [activator, single point]	
COc1ccc(-c2cc(C(=O)Nc3c(C)nn(Cc4ccc(Cl)cc4)c3C)no2)cc1		inactive: -0.284%
Oc1ccccc1C=NNc1nc2ccccc2s1	inconclusive: 3.16 µM [activator, partial curve, poor fit]	
CCCCNC(=S)N=Nc1c(O)[nH]c2ccccc12	inconclusive: 35.5 µM [activator, single point]	
COc1cc(NC(=O)c2cccs2)cc(OC)c1	inconclusive: 10 µM [activator, partial curve]	
CCOC(=O)c1cc(S(=O)(=O)Nc2ccc(C)cc2Cl)[nH]n1		inactive: 0.306%
Cc1cc(C)n2nc(CNS(=O)(=O)c3c(F)c(F)c(F)c(F)c3F)nc2n1	inconclusive: 3.16 µM [activator, partial curve, poor fit]	
Fc1ccccc1-c1ccc(/C=N/Nc2nc3ccccc3[nH]2)o1	active: 11.2 µM	
Cn1cc([N+](=O)[O-])c(C(=O)Nc2cc(Oc3ccccc3)cc([N+](=O)[O-])c2)n1	inconclusive: 5.62 µM [activator, single point]	
Cc1ccccc1-c1nc(-c2ccc(Br)o2)no1	inconclusive: 14.1 µM [activator, partial curve]	
Cc1ccccc1CS(=O)(=O)c1nnc([C@H](CC(C)C)NC(=O)OC(C)(C)C)o1	inconclusive: 14.1 µM [activator, single point]	
O=C(CS(=O)(=O)c1cccc2nsnc12)Nc1ccccc1		inactive: -0.36%
Cn1c(=O)n(C)c2cc(NS(=O)(=O)c3ccc(F)cc3)ccc21	inconclusive: 15.8 µM [activator, single point]	
c1ccc(N=Nc2cn[nH]c2-c2ccco2)cc1	active: 10 µM	
COc1cccc2cc(-c3nc4ccccc4o3)c(=O)oc12	inconclusive: 10 µM [activator, partial curve]	
O=C(Nc1cccc2nsnc12)c1cccs1	active: 7.94 µM	
